According to PMC6919601, “Identification of Plasmodium dipeptidyl aminopeptidase allosteric inhibitors by high throughput screening” (PLoS ONE, 2019):
The whole screen tested about 110,000 compounds, of which about 230 (0.21%) showed an effect of 50% or more. The list shows a part of the results.
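Also: 30 min substrate incubation versus DMSO and 10 µM JCP410 controls.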

Each molecule was assayed against DPAP1 (Plasmodium falciparum, UniProt Q8IIJ9) (assay: primary screen, percent inhibition; read by cleavage of a fluorogenic dipeptide substrate; higher = more effect of the substance).
Sequence of DPAP1 (Q8IIJ9 whole entry, looked up): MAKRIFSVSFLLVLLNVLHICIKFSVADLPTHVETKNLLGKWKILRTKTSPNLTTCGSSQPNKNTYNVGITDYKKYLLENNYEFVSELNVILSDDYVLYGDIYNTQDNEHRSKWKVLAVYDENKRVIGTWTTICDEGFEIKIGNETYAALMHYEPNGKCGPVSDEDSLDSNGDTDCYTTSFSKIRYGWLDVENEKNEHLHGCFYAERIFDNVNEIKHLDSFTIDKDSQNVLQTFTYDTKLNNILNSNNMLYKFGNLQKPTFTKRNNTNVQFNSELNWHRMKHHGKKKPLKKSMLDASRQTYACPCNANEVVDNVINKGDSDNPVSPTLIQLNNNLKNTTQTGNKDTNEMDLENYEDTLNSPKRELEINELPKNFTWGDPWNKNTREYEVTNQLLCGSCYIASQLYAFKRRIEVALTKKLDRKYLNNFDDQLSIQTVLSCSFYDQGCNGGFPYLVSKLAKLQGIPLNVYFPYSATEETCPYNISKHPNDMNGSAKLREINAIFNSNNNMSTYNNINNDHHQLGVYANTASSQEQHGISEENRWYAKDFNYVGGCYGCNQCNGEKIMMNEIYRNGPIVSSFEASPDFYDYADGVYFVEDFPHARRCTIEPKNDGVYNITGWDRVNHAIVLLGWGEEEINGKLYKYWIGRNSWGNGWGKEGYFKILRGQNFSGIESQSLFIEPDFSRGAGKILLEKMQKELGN
Set-up: species or system P. falciparum D10 trophozoite lysates; single well
For `COc1cc(CN2CCN(C3CCC(C)CC3)CC2)cc(OC)c1OC` (stereo not shown), the “% Inhibition @ 10 uM” value was -2.34%. With `c1ccc(OCCCN2CCOCC2)cc1` the “% Inhibition @ 10 uM” value was 2.13%. `CC1CCc2c(sc(/N=C/N(C)C)c2C#N)C1` (stereo not shown) was tested, and the “% Inhibition @ 10 uM” value was -4.12%. In the case of `CCOc1ccc(C2C(C#N)=C(N)OC3=C2C(=O)CC(C)(C)C3)cc1OCC` (stereo not shown), the “% Inhibition @ 10 uM” value is reported as -0.883%. In the case of `Cc1ccc(CS(=O)Cc2ccc(C(=O)NCCCc3ccccc3)o2)cc1` (stereo not shown), the “% Inhibition @ 10 uM” value is reported as -8.59%. For `CCCCN1C(=O)CN(C2CCC(C)CC2)C(=O)C1c1ccc(OC(C)C)c(OC)c1` (stereo not shown), the “% Inhibition @ 10 uM” value was -4.06%. In the case of `O=C(c1ccc(Cl)cc1)N1CCN(C/C=C/c2ccccc2)CC1`, the “% Inhibition @ 10 uM” value is reported as 5.55%. With `CCCCN(C)CCCNC(=O)c1cnn(-c2ccccc2)c1-n1cccc1` the “% Inhibition @ 10 uM” value was 1.8%. For `CCN(CC)CCN(CC)C1CCC(c2ccccc2)CC1` (stereo not shown), the “% Inhibition @ 10 uM” value was 2.22%. With `N#CC1=C(N)Oc2c(oc(CO)cc2=O)C1c1ccc(SC(F)(F)F)cc1` (stereo not shown) the “% Inhibition @ 10 uM” value was -7.3%. For `Fc1cccc(-c2nc3c4ccccc4nc(S)n3n2)c1`, the “% Inhibition @ 10 uM” value was 12.2%. In the case of `CN1CCN(CCC/N=c2\c(N)c(O)oc3ccccc23)CC1`, the “% Inhibition @ 10 uM” value is reported as 4.17%. `Cc1ccc(Cn2nnc3c(O)nc(C4CCN(C(=O)c5ccc(C(F)(F)F)cc5)CC4)nc32)cc1` was tested, and the “% Inhibition @ 10 uM” value was 3.66%. In the case of `CCOc1ccc(OCC)c(S(=O)(=O)N2CCN(c3ccc(C)c(C)c3)CC2)c1`, the “% Inhibition @ 10 uM” value is reported as 5.63%. In the case of `COc1ccccc1N1CCN(S(=O)(=O)c2cc(C)c(Br)cc2C)CC1`, the “% Inhibition @ 10 uM” value is reported as -11.1%. For `COc1cc(-n2c(C)nc3cc(C(=O)NCCN4CCOCC4)ccc32)cc(OC)c1OC`, the “% Inhibition @ 10 uM” value was -2.17%. With `CN(C(=O)C1CCCN(c2ncnc3onc(-c4ccc(F)cc4)c23)C1)C1CCCCC1` (stereo not shown) the “% Inhibition @ 10 uM” value was -5.57%. `COc1cccc(-c2cccc(C(=O)N[C@@H](CC(C)C)C(=O)NCC#N)c2)c1` was tested, and the “% Inhibition @ 10 uM” value was -3.48%. With `Nc1ncnc2c1nc(SCC(=O)O)n2Cc1ccccc1` the “% Inhibition @ 10 uM” value was -3.5%. `CCOc1cc(C2NC(=O)NC(C)=C2C(=O)Nc2ccc(Cl)cc2)ccc1O` (stereo not shown) was tested, and the “% Inhibition @ 10 uM” value was -4.69%. `O=c1c2cnn(-c3ccccc3)c2ncn1Cc1cccc2ccccc12` was tested, and the “% Inhibition @ 10 uM” value was 3.24%. For `CCOc1ccccc1C1C(C(=O)OC)=CN(Cc2ccc(F)cc2)C=C1C(=O)OC`, the “% Inhibition @ 10 uM” value was 4.99%. `COc1ccc(C(=O)NCc2cccnc2)cc1` was tested, and the “% Inhibition @ 10 uM” value was -0.132%. In the case of `CN(C(=O)c1ccc(Br)o1)C1CCS(=O)(=O)C1` (stereo not shown), the “% Inhibition @ 10 uM” value is reported as -8.3%. With `Cc1[nH]c2ccccc2c1-c1csc(-c2ccncc2)n1` the “% Inhibition @ 10 uM” value was 4.11%. `CC1CN(C(=O)COc2ccc(Cl)cc2)C(C)CN1C(=O)COc1ccc(Cl)cc1` (stereo not shown) was tested, and the “% Inhibition @ 10 uM” value was 7.16%. In the case of `O=C(c1ccc2nc(-c3ccccc3)c(-c3ccccc3)nc2c1)N1CCN(C(=O)c2ccco2)CC1`, the “% Inhibition @ 10 uM” value is reported as 6.71%. For `Cc1ccc(OCC(=O)NCc2nc(-c3ccc(Cl)cc3)no2)cc1`, the “% Inhibition @ 10 uM” value was 0.486%. With `COC(=O)c1sccc1NC(=O)CSc1nnnn1-c1ccc2c(c1)OCO2` the “% Inhibition @ 10 uM” value was -0.403%. With `CC(C)c1ccc(NC(=O)c2cnn(C)c2)cc1` the “% Inhibition @ 10 uM” value was -0.00273%. With `Cc1ccc(NC(=O)c2ccc(Cn3cc(Br)cn3)o2)cc1` the “% Inhibition @ 10 uM” value was -5.49%. `COC(=O)C1=C(C)n2cnnc2NC1c1ccc(Cl)cc1` (stereo not shown) was tested, and the “% Inhibition @ 10 uM” value was -5%. `CCc1ccc(-n2c(C)cc(/C=C3/C(=N)N4OC(C)=CC4=NC3=O)c2C)cc1` was tested, and the “% Inhibition @ 10 uM” value was -5.1%. With `OB1Oc2ccccc2-c2ccccc21` the “% Inhibition @ 10 uM” value was -7.23%. `CCOc1ccc2c(c1)C(C)=CC(C)(C)N2CN1C(=O)c2ccccc2C1=O` was tested, and the “% Inhibition @ 10 uM” value was -0.693%. For `CCc1nc2ccccc2c(C(=O)Nc2ccc(F)cc2)c1C`, the “% Inhibition @ 10 uM” value was -4.01%. `O=C1N/C(=C/c2ccco2)C(=O)N1c1ccc(Cl)cc1` was tested, and the “% Inhibition @ 10 uM” value was 4.25%. In the case of `COCCN1C(=O)c2ccccc2C(C(=O)N2CCC(C)CC2)C1c1cn(C)c2ccccc12` (stereo not shown), the “% Inhibition @ 10 uM” value is reported as 2.42%. `Cc1ccc(-n2nc3c(=O)n(CCCC(=O)NCCN(C)C)nc(C)c3c2C)cc1` was tested, and the “% Inhibition @ 10 uM” value was -2.12%. In the case of `O=C(c1ccc(COc2ccc(Br)cc2)o1)N1N=C(C(F)F)CC1(O)C(F)F` (stereo not shown), the “% Inhibition @ 10 uM” value is reported as 0.709%. In the case of `COc1ccccc1CN1CCN(Cc2cccc(F)c2)CC1`, the “% Inhibition @ 10 uM” value is reported as 4.49%. In the case of `O=C1Cc2cc3c(cc2CCN1Cc1ccccc1)OCO3`, the “% Inhibition @ 10 uM” value is reported as 2.79%. With `Cc1ccc(OCc2nc(-c3ccc(Br)cc3)no2)cc1` the “% Inhibition @ 10 uM” value was 1.64%. `O=S(=O)(c1ccccc1)c1nc(-c2cccs2)oc1N1CCOCC1` was tested, and the “% Inhibition @ 10 uM” value was 0.032%. With `CC1=C(C(=O)Nc2ccc(Br)cc2)C(c2ccc(Cl)cc2Cl)NC(=O)N1` (stereo not shown) the “% Inhibition @ 10 uM” value was 1.28%. In the case of `COc1ccc(Cl)cc1-c1nc(-c2ccc(-n3cccc3)cc2)no1`, the “% Inhibition @ 10 uM” value is reported as 2.99%. With `COc1cc(OC)c(OC)cc1/C=C1\SC(N)=NC1=O` the “% Inhibition @ 10 uM” value was 13.6%. `Cc1ccc(S(=O)(=O)N(CC(=O)Nc2ccc3c(c2)OCO3)c2ccccc2Cl)cc1` was tested, and the “% Inhibition @ 10 uM” value was 7.01%. `C=CCn1c(SCC(=O)NCc2ccc(C(=O)OCC)o2)nc2c1c(=O)n(C)c(=O)n2C` was tested, and the “% Inhibition @ 10 uM” value was -6.25%.
